# In the supplement of paper PMC8728848:
# This is one part of the list.
# B1: ArathEULS3 (Arabidopsis thaliana), Q945P1 (protein)
# chain: MEHHHQHHRHHQRDDGEDDRQSFGVPPPHVDAPPQPHGLYQSQPHFDPYAPTPQAPAPYRSETQFEPHAPPPYRSEPYFETPAPPPSFGHVSHVGHQSPNESYPPEHHRYGGYQQPSNSLLESHGDHSGVTHVAHHSSNQPQSSSGVYHKPDENRLPDNLAGLAGRATVKVYSKAEPNYNLTIRDGKVILAPADPSDEAQHWYKDEKYSTKVKDADGHPCFALVNKATGEAMKHSVGATHPVHLIRYVPDKLDESVLWTESKDFGDGYRTIRMVNNTRLNVDAYHGDSKSGGVRDGTTIVLWDWNKGDNQLWKIFPFILEQKLISEEDLNSAVDHHHHHH
# Key:
# Test in all cases: glycan array binding signal (z-score within array); higher = stronger binding
# Conditions in all cases: glycan notation: IUPAC condensed, linker removed
# Gal3S(b1-3)GlcNAc = target: Gal3S(b1-3)GlcNAc
# How it was run: (§1)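 Negative Z-scores can be read as non-binding. The Z-score is calculated within each array and then averaged across arrays of one protein sequence at different concentrations or buffers and across linkers. Arrays, 3228 in all, were curated from the Consortium for Functional Glycomics database and kept only where the protein sequence was available.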
# [1] = target: Gal3S(b1-3)[Fuc(a1-4)]GlcNAc
# How it was run: as §1
# Gal3S(b1-4)Glc = target: Gal3S(b1-4)Glc
# How it was run: as §1
# Gal3S(b1-4)Glc6S = target: Gal3S(b1-4)Glc6S
# How it was run: as §1
# Gal3S(b1-4)GlcNAc = target: Gal3S(b1-4)GlcNAc
# How it was run: as §1
# Gal3S(b1-4)GlcNAc6S = target: Gal3S(b1-4)GlcNAc6S
# How it was run: as §1
# [2] = target: Gal3S(b1-4)[Fuc(a1-3)]Glc
# How it was run: as §1
# [3] = target: Gal3S(b1-4)[Fuc(a1-3)]Glc6S
# How it was run: as §1
# Gal3S4S(b1-4)GlcNAc = target: Gal3S4S(b1-4)GlcNAc
# How it was run: as §1
# Gal3S6S(b1-4)GlcNAc = target: Gal3S6S(b1-4)GlcNAc
# How it was run: as §1
# Gal3S6S(b1-4)GlcNAc6S = target: Gal3S6S(b1-4)GlcNAc6S
# How it was run: as §1
# Gal4S(b1-4)GlcNAc = target: Gal4S(b1-4)GlcNAc
# How it was run: as §1
# Gal4S6S(b1-4)GlcNAc = target: Gal4S6S(b1-4)GlcNAc
# How it was run: as §1
# Gal6P(b1-4)GlcNAc = target: Gal6P(b1-4)GlcNAc
# How it was run: as §1
# Gal6S(b1-3)GlcNAc = target: Gal6S(b1-3)GlcNAc
# How it was run: as §1
# Gal6S(b1-3)GlcNAc6S = target: Gal6S(b1-3)GlcNAc6S
# How it was run: as §1
# Gal6S(b1-4)Glc = target: Gal6S(b1-4)Glc
# How it was run: as §1
# Gal6S(b1-4)Glc6S = target: Gal6S(b1-4)Glc6S
# How it was run: as §1
# Gal6S(b1-4)GlcNAc = target: Gal6S(b1-4)GlcNAc
# How it was run: as §1
# Gal6S(b1-4)GlcNAc6S = target: Gal6S(b1-4)GlcNAc6S
# How it was run: as §1
# GalNAc(a1-3)Gal = target: GalNAc(a1-3)Gal
# How it was run: as §1
# GalNAc(a1-3)GalNAc = target: GalNAc(a1-3)GalNAc
# How it was run: as §1
# [4] = target: GalNAc(a1-3)GalNAc(b1-3)Gal(a1-4)Gal(b1-4)Glc
# How it was run: as §1
# [5] = target: GalNAc(a1-3)GalNAc(b1-3)Gal(a1-4)Gal(b1-4)GlcNAc
# How it was run: as §1
# GalNAc(b1-3)Gal = target: GalNAc(b1-3)Gal
# How it was run: as §1
# [6] = target: GalNAc(b1-3)Gal(a1-4)Gal(b1-4)GlcNAc
# How it was run: as §1
# [7] = target: GalNAc(b1-3)Gal(a1-4)Gal(b1-4)GlcNAc(b1-3)Gal(b1-4)Glc
# How it was run: as §1
# [8] = target: GalNAc(b1-3)Gal(a1-6)Gal(b1-4)Glc
# How it was run: as §1
# GalNAc(b1-3)GalNAc = target: GalNAc(b1-3)GalNAc
# How it was run: as §1
# GalNAc(b1-4)Gal(b1-4)Glc = target: GalNAc(b1-4)Gal(b1-4)Glc
# How it was run: as §1
# GalNAc(b1-4)GlcNAc = target: GalNAc(b1-4)GlcNAc
# How it was run: as §1
# [9] = target: GalNAc(b1-4)GlcNAc(b1-2)Man(a1-3)[GalNAc(b1-4)GlcNAc(b1-2)Man(a1-6)]Man(b1-4)GlcNAc(b1-4)GlcNAc
# How it was run: as §1
# GalNAc(b1-4)GlcNAc6S = target: GalNAc(b1-4)GlcNAc6S
# How it was run: as §1
# GalNAc(b1-6)GalNAc = target: GalNAc(b1-6)GalNAc
# How it was run: as §1
# GalNAc3S(b1-4)GlcNAc = target: GalNAc3S(b1-4)GlcNAc
# How it was run: as §1
# GalNAc3S(b1-4)GlcNAc3S = target: GalNAc3S(b1-4)GlcNAc3S
# How it was run: as §1
# GalNAc4S6S(b1-4)GlcNAc = target: GalNAc4S6S(b1-4)GlcNAc
# How it was run: as §1
# GalNAc6S(b1-4)GlcNAc = target: GalNAc6S(b1-4)GlcNAc
# How it was run: as §1
binder,measurement,setting,value
B1,glycan array binding signal (z-score),Gal3S(b1-3)GlcNAc,-0.279
same,glycan array binding signal (z-score),[1],-0.23
same,glycan array binding signal (z-score),Gal3S(b1-4)Glc,-0.146
same,glycan array binding signal (z-score),Gal3S(b1-4)Glc6S,-0.236
same,glycan array binding signal (z-score),Gal3S(b1-4)GlcNAc,-0.266
same,glycan array binding signal (z-score),Gal3S(b1-4)GlcNAc6S,-0.003
same,glycan array binding signal (z-score),[2],-0.141
same,glycan array binding signal (z-score),[3],-0.263
same,glycan array binding signal (z-score),Gal3S4S(b1-4)GlcNAc,-0.246
same,glycan array binding signal (z-score),Gal3S6S(b1-4)GlcNAc,-0.004
same,glycan array binding signal (z-score),Gal3S6S(b1-4)GlcNAc6S,-0.228
same,glycan array binding signal (z-score),Gal4S(b1-4)GlcNAc,-0.309
same,glycan array binding signal (z-score),Gal4S6S(b1-4)GlcNAc,-0.292
same,glycan array binding signal (z-score),Gal6P(b1-4)GlcNAc,0.093
same,glycan array binding signal (z-score),Gal6S(b1-3)GlcNAc,-0.202
same,glycan array binding signal (z-score),Gal6S(b1-3)GlcNAc6S,-0.256
same,glycan array binding signal (z-score),Gal6S(b1-4)Glc,-0.334
same,glycan array binding signal (z-score),Gal6S(b1-4)Glc6S,-0.38
same,glycan array binding signal (z-score),Gal6S(b1-4)GlcNAc,-0.315
same,glycan array binding signal (z-score),Gal6S(b1-4)GlcNAc6S,-0.179
same,glycan array binding signal (z-score),GalNAc(a1-3)Gal,-0.087
same,glycan array binding signal (z-score),GalNAc(a1-3)GalNAc,-0.218
same,glycan array binding signal (z-score),[4],-0.262
same,glycan array binding signal (z-score),[5],-0.339
same,glycan array binding signal (z-score),GalNAc(b1-3)Gal,-0.172
same,glycan array binding signal (z-score),[6],-0.074
same,glycan array binding signal (z-score),[7],-0.327
same,glycan array binding signal (z-score),[8],-0.269
same,glycan array binding signal (z-score),GalNAc(b1-3)GalNAc,0.511
same,glycan array binding signal (z-score),GalNAc(b1-4)Gal(b1-4)Glc,1.05
same,glycan array binding signal (z-score),GalNAc(b1-4)GlcNAc,-0.213
same,glycan array binding signal (z-score),[9],-0.099
same,glycan array binding signal (z-score),GalNAc(b1-4)GlcNAc6S,-0.429
same,glycan array binding signal (z-score),GalNAc(b1-6)GalNAc,-0.421
same,glycan array binding signal (z-score),GalNAc3S(b1-4)GlcNAc,-0.111
same,glycan array binding signal (z-score),GalNAc3S(b1-4)GlcNAc3S,-0.173
same,glycan array binding signal (z-score),GalNAc4S6S(b1-4)GlcNAc,-0.105
same,glycan array binding signal (z-score),GalNAc6S(b1-4)GlcNAc,-0.126
